{"source": "ChEMBL document CHEMBL4888484", "about": "“Replenishing the malaria drug discovery pipeline: Screening and hit evaluation of the MMV Hit Generation Library 1 (HGL1) against asexual blood stage Plasmodium falciparum ,using a nano luciferase reporter read-out” (2022)", "note": "Out of some 150,000 compounds screened, about 540 (0.36%) showed an effect of 50% or more. Some of the results follow.", "data": [{"test_system": "Plasmodium falciparum", "test": "Primary screen in NF54 nanoGlo assay, in single point, at 2uM, 72h; a lower Z score goes with more inhibition", "type": "functional, Erythrocyte", "conditions": "timepoint 72 hour", "units": {"% Inhibition": "%"}, "values": [{"smiles": "CCCn1ncc(C(=O)N(Cc2ccc3c(c2)OCO3)C2CC2)c1C", "% Inhibition": -11, "Z score": 1.65}, {"smiles": "C[C@@H](C1CC1)N(C(=O)c1cn(C)c2ccccc12)C1CC1", "% Inhibition": 10, "Z score": -1.34}, {"smiles": "O=c1cc2c(n[nH]1)CCN(CCN1CC3CCC(C1)O3)C2", "% Inhibition": -5, "Z score": 0.97}, {"smiles": "CN[C@@H](C)Cc1noc(-c2cncc(-c3ccc4c(c3)CCO4)c2)n1", "% Inhibition": -26, "Z score": 3.72}, {"smiles": "Cc1nc(CN2CCC3CCC(C2)N3C)oc1C", "note": "(stereo not drawn)", "% Inhibition": -4, "Z score": 0.67}, {"smiles": "CCCN1CC[C@H]2CC(=O)Nc3cccnc3OCC[C@H]2C1", "% Inhibition": -12, "Z score": 1.93}, {"smiles": "CN(C)CC#CCNC(=O)Cc1ccc(F)cc1", "% Inhibition": -8, "Z score": 1.54}, {"smiles": "O=C1NC(=O)C2(Cc3ccccc3N3CCCC32)C(=O)N1c1ccc(F)cc1", "note": "(stereo not drawn)", "% Inhibition": -8, "Z score": 0.98}, {"smiles": "COc1cccc([C@H]2CN(C)[C@@H]3C4CCN(CC4)[C@H]23)c1", "% Inhibition": -9, "Z score": 1.8}, {"smiles": "Cc1c(C(=O)NC[C@H]2CN3CCN2CC3)nnn1C", "% Inhibition": 4, "Z score": -0.84}, {"smiles": "Cc1cc(CN2CCCC23CCN(c2ncccn2)CC3)on1", "% Inhibition": 2, "Z score": -0.37}, {"smiles": "CC(C)NC(=O)N1C[C@@H]2C[C@H](C1)c1c(-c3ccccc3)ccc(=O)n1C2", "% Inhibition": -5, "Z score": 0.92}, {"smiles": "COc1ccc2c(c1)[C@@]1(CCN(S(=O)(=O)c3ccc(F)c(C)c3)C1)C(=O)N2C", "% Inhibition": 5, "Z score": -0.66}, {"smiles": "CN(C)CC#CCNC(=O)NCc1cccs1", "% Inhibition": -7, "Z score": 1.23}, {"smiles": "COc1ccncc1CNCc1ccccc1N(C)C1CCN(C)CC1", "% Inhibition": -6, "Z score": 0.7}, {"smiles": "CN1C(=O)C(C(=O)CCc2cc3ccccc3o2)C(=O)N(C)C1=O", "% Inhibition": -9, "Z score": 1.54}, {"smiles": "COCCO[C@H]1CCCN(C2CCC2)C1", "% Inhibition": -5, "Z score": 0.67}, {"smiles": "O=c1[nH]nc([C@H]2CCCN(c3ncnc4ccc(F)cc34)C2)o1", "% Inhibition": -5, "Z score": 0.39}, {"smiles": "Cn1c(NC(=O)C2CN3CCCN2CC3)nc2cccnc21", "note": "(stereo not drawn)", "% Inhibition": 4, "Z score": -0.63}, {"smiles": "CC(C)n1nnc2cc(S(=O)(=O)N3CCC[C@H](C(=O)N4CCC5(CC4)OCCO5)C3)ccc21", "% Inhibition": -21, "Z score": 1.85}, {"smiles": "COc1cccc([C@H]2CN(c3nccs3)[C@@H]3C4CCN(CC4)[C@H]23)c1", "% Inhibition": -12, "Z score": 1.61}, {"smiles": "NCCc1ccccc1-c1ccc2c(c1)OCCO2", "% Inhibition": -4, "Z score": 0.57}, {"smiles": "CCCCn1nnnc1CN[C@@H](C)Cn1cccn1", "% Inhibition": -9, "Z score": 1.66}, {"smiles": "c1cnc(N2C[C@H](c3ccc4c(c3)OCO4)[C@@H]3[C@H]2C2CCN3CC2)nc1", "% Inhibition": -3, "Z score": 0.3}, {"smiles": "CN1C[C@H](c2ccc(F)cc2)C(C(=O)c2ccccc2)[C@]12C(=O)Nc1ccccc12", "note": "(stereo partly drawn)", "% Inhibition": 5, "Z score": -0.72}, {"smiles": "COc1cccc(C[C@H](C)NC(=O)NCc2sc(C)nc2C)c1", "% Inhibition": -12, "Z score": 0.99}, {"smiles": "CN1CCCCCCN(Cc2ccccn2)[C@H]2CCC[C@H]2C1=O", "% Inhibition": 10, "Z score": -1.3}, {"smiles": "COc1ccccc1[C@@H]1CN(c2ncccn2)[C@@H]2C3CCN(CC3)[C@@H]21", "% Inhibition": 1, "Z score": -0.24}, {"smiles": "Cc1noc(C)c1CN1C[C@@H]2Oc3ncccc3S(=O)(=O)N[C@@H]2C1", "% Inhibition": -6, "Z score": 0.85}, {"smiles": "Cc1nc(-c2cc(F)cc(F)c2)c(N)c(N(C)C2CCN(C)CC2)n1", "% Inhibition": -9, "Z score": 1.38}, {"smiles": "Cc1noc2ncc(C(=O)N3CCC4(CC3)OCCO4)cc12", "% Inhibition": 5, "Z score": -0.82}, {"smiles": "O=c1[nH]c2ccc(S(=O)(=O)N3CCC[C@@H]3C(F)F)cc2o1", "% Inhibition": 2, "Z score": -0.21}, {"smiles": "Brc1cncc([C@@H]2CCCN2c2nccn3nnnc23)c1", "% Inhibition": -16, "Z score": 1.61}, {"smiles": "COc1ccc([C@@H]2CN(Cc3ccc(F)cc3)[C@@H]3C4CCN(CC4)[C@@H]32)cc1", "% Inhibition": 2, "Z score": -0.45}, {"smiles": "O=S(=O)(Nc1ccc2c(c1)CNCC2)c1cccc(Cl)c1", "% Inhibition": -1, "Z score": 0.16}, {"smiles": "CCc1nc(C)c(CN2CCC[C@H](C(=O)c3ccc(Cl)cc3)C2)[nH]1", "% Inhibition": -2, "Z score": 0.37}, {"smiles": "CC1CN(C(C)C)CC1NC(C)C(O)c1ccc(F)cc1", "note": "(stereo not drawn)", "% Inhibition": -4, "Z score": 0.79}, {"smiles": "CC(C)N1C(=O)N=C(O)C2(Cc3ccccc3N3CCN(c4ccccc4)CC32)C1=O", "note": "(stereo not drawn)", "% Inhibition": 9, "Z score": -1.23}, {"smiles": "CN1CC2(CCN(C(=O)c3cnc(C4CC4)nc3)C2)C1", "% Inhibition": -9, "Z score": 1.7}, {"smiles": "O=C(NCC1CCN(C(=O)Oc2ccccc2)CC1)c1ccsc1", "% Inhibition": -5, "Z score": 0.75}, {"smiles": "O=c1oc2ccccc2n1CCNc1ccccc1Oc1ncc(Cl)cc1Cl", "% Inhibition": -6, "Z score": 0.91}, {"smiles": "O=C(Nc1ccccc1)N1C[C@@H]2C[C@H](C1)c1c(-c3cccnc3)ccc(=O)n1C2", "% Inhibition": -7, "Z score": 1.08}, {"smiles": "Cc1cccn2c(CN3CCOCC34CCC4)cnc12", "% Inhibition": 4, "Z score": -0.39}, {"smiles": "Cn1c(N2CCC[C@H]2c2cccnc2)nc2ccccc21", "% Inhibition": -3, "Z score": 0.52}, {"smiles": "O=C(C1CCCCC1)N1C[C@@H]2C[C@H](C1)c1c(-c3ccc(Cl)cc3)ccc(=O)n1C2", "% Inhibition": 1, "Z score": -0.14}, {"smiles": "CNc1nc(CN2C[C@@H]3[C@@H]4CC[C@@H](C4)[C@@H]3C2)cs1", "% Inhibition": -10, "Z score": 1.22}, {"smiles": "O=C1CCCN1C(=O)c1cncc(Br)c1", "% Inhibition": -8, "Z score": 1.04}, {"smiles": "COCCCNC1CCCCC1C(C)(C)C", "note": "(stereo not drawn)", "% Inhibition": -15, "Z score": 1.9}, {"smiles": "c1cncc(-c2noc(CN3CCC4CCCCC4C3)n2)c1", "note": "(stereo not drawn)", "% Inhibition": -14, "Z score": 1.24}, {"smiles": "CO[C@H]1[C@@H]2CC[C@H]1CN(Cc1ccc(N(C)C)nc1)C2", "% Inhibition": 0, "Z score": 0.04}, {"smiles": "O=C(Cc1cccc(F)c1)N1CCCCC[C@@H]1CN1CCCC1", "% Inhibition": 2, "Z score": -0.34}, {"smiles": "O=c1oc2c(Cl)cc(Br)cc2n1Cc1noc(-c2ccoc2)n1", "% Inhibition": 0, "Z score": -0.07}, {"smiles": "COc1ccc(CCNC2CCC(C)C2)cc1OC", "note": "(stereo not drawn)", "% Inhibition": 6, "Z score": -0.89}, {"smiles": "COc1ccc2c(c1)[C@@]1(CCN(S(=O)(=O)c3cc(F)cc(F)c3)C1)C(=O)N2C", "% Inhibition": -18, "Z score": 2.39}]}]}
